According to PubChem BioAssay AID1963576 (National Center for Advancing Translational Sciences (NCATS), 2024):
In all, about 46,000 compounds went through this assay and about 60 (0.1%) were called active. Another 3% or so got no clear call; they are omitted. Calls come from the whole dose curve; as a rule, active = well fitted inhibition curve with a large enough effect; inconclusive = small, poorly fitted or top-dose-only effect; inactive = no such curve, though single readings can be large or run the other way. The list shows a part of the results.

Test: Primary qHTS assay for Inhibitors of ovarian cancer metastasis using an organotypic tumor microenvironment (TME) model.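 For activity change, negative = inhibition: plate controls were DMSO wells for no effect and tomatine positive control wells for full effect.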 Note: nearly all actives have a fitted effect of over 65% in size.
Conditions: SKOV3ip1-GFP adhesion/invasion on 3D omental model, fluorescence; series mostly up to 45.8 µM; activity change, negative = inhibition: at the top concentration
In short: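 qHTS, 4-pt dose (0.36-46 umol/L); SKOV3ip1-GFP, 1,200 cells/well, no FBS; primary omental fibroblast/mesothelial co-culture 48 h pre-grown; 2 h RT + 16 h 37 C; PBS wash, 4% PFA; GFP count 488/509 nm.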

Q: Which “outcome” value does the source give for `O=C(CN1C(=O)COc2ccc(S(=O)(=O)N3CCOCC3)cc21)N1CCN(c2ccc(F)cc2)CC1` here?
A: Its value is “inactive”.

Q: For `Cc1ccc(C)c(N2CCN(C3=C(c4ccccc4)C(=O)c4ccccc43)CC2)c1`, which “activity change, negative = inhibition” value is on record?
A: The value was inactive: -7.72%.

Q: Which “activity change, negative = inhibition” value does the source give for `CC(=O)c1cccc(NS(=O)(=O)c2ccc3c(c2)NC(=O)CC(=O)N3)c1` here?
A: The value was inactive: -9.03%.

Q: Which “activity change, negative = inhibition” value does the source give for `Cc1ccc(Cl)cc1NC(=O)Cn1c(=O)n(Cc2ccc(C(=O)NCc3ccc4c(c3)OCO4)cc2)c(=O)c2ccccc21` here?
A: The value was inactive: 18.7%.

Q: For `CCN(Cc1ccccc1)C(=O)c1cc2c(s1)-c1c(C)cccc1OC2`, which “activity change, negative = inhibition” value is on record?
A: Its value is inactive: 11.7%.

Q: Which “activity change, negative = inhibition” value does the source give for `CC(=O)N1c2c(cc(Br)cc2S(=O)(=O)N2CCN(c3cccc(Cl)c3)CC2)CC1C` (stereo not given) here?
A: The value was inactive: 26.2%.

Q: Which “activity change, negative = inhibition” value does the source give for `COc1cccc(N2CCN(C(=O)c3cnn(-c4ccc(C)cc4C)c3C3CCN(C(=O)OC(C)(C)C)CC3)CC2)c1` here?
A: Its value is inactive: 3.62%.

Q: Which “activity change, negative = inhibition” value does the source give for `CCOc1ccc(-c2csc(/C(C#N)=C/c3ccc(Br)cc3)n2)cc1` here?
A: Its value is inactive: 7.48%.

Q: With `Cc1nn(CC(=O)Nc2ccccc2F)c(=O)c2c(C)n(-c3ccc(Cl)cc3)nc12` as the compound, how does the “activity change, negative = inhibition” value read?
A: Its value is inactive: -25.4%.

Q: With `COc1ccc(NC(=O)CSc2cc(-c3ccccc3)nc(C)n2)cc1` as the compound, how does the “outcome” value read?
A: The value was “inactive”.

Q: Which “activity change, negative = inhibition” value does the source give for `O=c1c2cnn(-c3ccc(Cl)cc3)c2ncn1Cc1cccc(C(F)(F)F)c1` here?
A: Its value is inactive: -0.71%.

Q: For `CCN1CCN(c2c(S(=O)(=O)c3ccc(C)c(C)c3)cnc3ccc(F)cc23)CC1`, which “activity change, negative = inhibition” value is on record?
A: Its value is inactive: -7.3%.

Q: For `Cc1ccc(-n2c(SCC(=O)Nc3cccc(C)c3)nc3c(oc4ccccc43)c2=O)cc1`, which “outcome” value is on record?
A: Its value is “inactive”.

Q: With `CN1CCN(c2nc3c(S(=O)(=O)c4ccccc4)nnn3c3ccsc23)CC1` as the compound, how does the “activity change, negative = inhibition” value read?
A: The value was inactive: 3.45%.

Q: With `CCCN(CCC)C(=O)Cn1c(=O)n(-c2ccc(OC)cc2)c(=O)c2ccc(C(=O)NCc3ccc(C)cc3)cc21` as the compound, how does the “activity change, negative = inhibition” value read?
A: Its value is inactive: -8.36%.

Q: For `CCCn1c(NCc2ccc(N(CC)CC)cc2)nc2ccccc21`, which “activity change, negative = inhibition” value is on record?
A: Its value is inactive: -2.48%.

Q: Which “outcome” value does the source give for `CCC(=O)Nc1ccc2nc(SCCOc3ccc(C)cc3)sc2c1` here?
A: The value was “inactive”.

Q: Which “activity change, negative = inhibition” value does the source give for `CCOC(=O)C1CCN(C(=O)CN2c3ccc(CC)cc3-c3ccccc3S2(=O)=O)CC1` here?
A: Its value is inactive: -6.97%.

Q: Which “activity change, negative = inhibition” value does the source give for `CCS(=O)(=O)c1ncc(N(Cc2ccc(F)cc2)Cc2ccco2)c(C(=O)Nc2cc(C)ccc2C)n1` here?
A: Its value is inactive: -4.5%.

Q: With `COc1cccc(-c2ccc3c(N)c(C(=O)Nc4cc(F)ccc4F)sc3n2)c1` as the compound, how does the “activity change, negative = inhibition” value read?
A: The value was inactive: 2.75%.

Q: Which “outcome” value does the source give for `CCOC(=O)C1CCCN(C(=O)c2ccc(-n3ccc4ccccc43)s2)C1` (stereo not given) here?
A: The value was “inactive”.

Q: With `CCCCN(CCCNC(=O)c1c(C)oc2nc[nH]c(=O)c12)Cc1ccccc1` as the compound, how does the “activity change, negative = inhibition” value read?
A: Its value is inactive: -1.09%.

Q: Which “activity change, negative = inhibition” value does the source give for `COc1ccc(CNC(=O)c2cnn(-c3ccc(F)cc3)c2-n2cccc2)cc1` here?
A: The value was inactive: 44.7%.

Q: Which “activity change, negative = inhibition” value does the source give for `Cc1ccc(NC(=O)Cn2cc(S(=O)(=O)N3CCC(C)CC3)c3ccccc3c2=O)c(Br)c1` here?
A: The value was inactive: -20.9%.

Q: For `Cc1cccc(Oc2ccc3c(c2)Oc2ccccc2NC3=O)c1`, which “outcome” value is on record?
A: The value was “inactive”.

Q: Which “activity change, negative = inhibition” value does the source give for `COc1ccc(-c2nnc(SCC(=O)N(C)Cc3ccccc3)o2)cc1OC` here?
A: The value was inactive: 7.64%.

Q: Which “activity change, negative = inhibition” value does the source give for `O=S(=O)(Nc1cccc(-c2ccc(N3CCCC3)nn2)c1)c1ccc(F)c(C(F)(F)F)c1` here?
A: Its value is inactive: 2.12%.

Q: For `Cc1ccc(Nc2c(-c3cccnc3)nc3ccc(Br)cn23)cc1`, which “activity change, negative = inhibition” value is on record?
A: The value was inactive: -1.44%.

Q: Which “activity change, negative = inhibition” value does the source give for `CNC(=O)c1c(NC(=O)c2ccc(S(=O)(=O)N3CCCCC3C)cc2)sc2c1CCC2` (stereo not given) here?
A: The value was inactive: -8%.

Q: With `Cc1c(Cl)cccc1NC(=O)Cn1cc2c(n1)CCCC2` as the compound, how does the “activity change, negative = inhibition” value read?
A: Its value is inactive: 0.082%.

Q: For `COc1ccc(C)cc1-n1nnc(C(=O)Nc2cccc(SC)c2)c1C`, which “activity change, negative = inhibition” value is on record?
A: Its value is inactive: 10.2%.

Q: For `Cc1oc2c(c(C)cc3oc(=O)c(CC(=O)NCc4ccccc4)c(C)c32)c1C`, which “activity change, negative = inhibition” value is on record?
A: Its value is inactive: 6.77%.

Q: Which “outcome” value does the source give for `COc1cccc(N2CCN(C(=O)CN3C(=O)COc4ccc(S(=O)(=O)N5CCC(C)CC5)cc43)CC2)c1` here?
A: The value was “inactive”.

Q: With `CCOC(=O)c1cc(-c2ccccc2)n(-c2cccc(C(=O)Nc3cccc(C(C)=O)c3)c2)c1C` as the compound, how does the “activity change, negative = inhibition” value read?
A: The value was inactive: 6.54%.

Q: For `Cc1cccc(CNC(=O)c2ccc(NC(=O)N3CCSc4ccccc43)cc2)c1`, which “activity change, negative = inhibition” value is on record?
A: The value was inactive: 2.22%.

Q: For `COc1ccc(C(=O)NCC(c2cccnc2)N2CCc3ccccc32)cc1OC` (stereo not given), which “outcome” value is on record?
A: Its value is “inactive”.

Q: Which “activity change, negative = inhibition” value does the source give for `O=C(O)c1ccc(NC(=O)c2cc3ccccc3o2)cc1` here?
A: The value was inactive: 6.58%.

Q: For `Cc1ccc(NC(=O)Cn2c(SCc3ccc(F)cc3)nc3cccnc32)cc1F`, which “outcome” value is on record?
A: The value was “inactive”.

Q: For `C[C@@H](Oc1cc(-c2cnn(C3CCNCC3)c2)cnc1N)c1c(Cl)ccc(F)c1Cl`, which “activity change, negative = inhibition” value is on record?
A: Its value is inactive: -15.8%.

Q: Which “activity change, negative = inhibition” value does the source give for `O=C(CSc1nc2c([nH]c3ccccc32)c(=O)n1-c1ccccc1)N1CCCCCC1` here?
A: The value was inactive: -9.94%.

Q: Which “outcome” value does the source give for `CC1CCc2c(sc(NC(=O)COc3ccccc3C(C)(C)C)c2C#N)C1` (stereo not given) here?
A: The value was “inactive”.

Q: Which “activity change, negative = inhibition” value does the source give for `CCc1cccc(NC(=O)CCS(=O)(=O)c2ccc3nc(C)sc3c2)c1` here?
A: The value was inactive: -1.28%.

Q: Which “outcome” value does the source give for `O=C(Nc1cccc(F)c1)C1CCN(c2nc3ccccc3[nH]2)CC1` here?
A: The value was “inactive”.

Q: With `Cc1cccc(-n2ccnc2SCC(=O)Nc2ccc3c(c2)OCO3)c1` as the compound, how does the “activity change, negative = inhibition” value read?
A: Its value is inactive: -12.1%.

Q: With `Cc1nc2c3ccccc3nc(NNC(=O)CCC(=O)N3CCN(c4cccc(C(F)(F)F)c4)CC3)n2n1` as the compound, how does the “activity change, negative = inhibition” value read?
A: The value was inactive: -7.09%.

Q: For `CCCCOc1ccc(C(=O)N/C(=C\c2ccc(Br)cc2)C(=O)NC2CCCCC2)cc1`, which “outcome” value is on record?
A: The value was “inactive”.

Q: Which “activity change, negative = inhibition” value does the source give for `CSCCC(NS(=O)(=O)c1ccc2c(c1)oc(=O)n2C)C(=O)N1CCN(c2ccc(F)cc2)CC1` (stereo not given) here?
A: The value was inactive: -9.63%.

Q: For `CCc1ccc(-n2nc(C)c3c(C)cc(=O)n(CC(=O)Nc4ccccc4C(=O)OC)c32)cc1`, which “outcome” value is on record?
A: Its value is “inactive”.

Q: Which “activity change, negative = inhibition” value does the source give for `COc1ccc(CN2C(=O)c3oc4ccccc4c(=O)c3C2c2ccc(O)c(OC)c2)cc1` (stereo not given) here?
A: Its value is inactive: -0.147%.

Q: Which “outcome” value does the source give for `COc1ccc(CNc2ncnc3c2cnn3-c2ccc(C)c(C)c2)cc1` here?
A: Its value is “inactive”.

Q: Which “activity change, negative = inhibition” value does the source give for `Cc1csc2nc(CCNS(=O)(=O)c3ccc(F)cc3)cn12` here?
A: Its value is inactive: 5.17%.

Q: Which “activity change, negative = inhibition” value does the source give for `CC(=O)c1ccc(NC(=O)CCc2c(C)nn(-c3ccc(N4CCCCC4)nn3)c2C)cc1` here?
A: Its value is inactive: 4.73%.

Q: Which “activity change, negative = inhibition” value does the source give for `COc1cccc(C(=O)NC2CC(=O)N(c3ccc4c(c3)OCCO4)C2)c1OC` (stereo not given) here?
A: Its value is inactive: 7.2%.

Q: With `CCOc1ccc(CNC(=O)c2ccc3c(c2)nc2n3CCC(C)C2)cc1OC` (stereo not given) as the compound, how does the “outcome” value read?
A: Its value is “inactive”.

Q: Which “outcome” value does the source give for `CCCCSCCCNC(=O)C1CCC(CNS(=O)(=O)c2c(C)cc(C)cc2C)CC1` (stereo not given) here?
A: Its value is “inactive”.

Q: For `CCOc1ccccc1NC(c1nnc(-c2ccccc2)o1)c1ccc(F)cc1Cl` (stereo not given), which “activity change, negative = inhibition” value is on record?
A: The value was inactive: -3.68%.

Q: For `Cn1c(=O)oc2cc(S(=O)(=O)N3CCC(C(=O)N4CCN(c5ccc(Cl)cc5)CC4)CC3)ccc21`, which “activity change, negative = inhibition” value is on record?
A: Its value is inactive: 14.8%.

Q: For `O=C(Nc1ccc2oc(-c3ccc(Cl)cc3)nc2c1)c1ccc2ccccc2c1`, which “activity change, negative = inhibition” value is on record?
A: The value was inactive: 5.63%.

Q: With `CCOC(=O)c1c(NC(=O)c2ccc(OC)c(OC)c2)sc2c1CCCCC2` as the compound, how does the “activity change, negative = inhibition” value read?
A: Its value is inactive: -6.2%.

Q: For `O=C(CCOc1ccccc1)N(Cc1cccnc1)c1nc2ccc(F)cc2s1`, which “outcome” value is on record?
A: Its value is “inactive”.
